Laboratory results: the supplement of paper PMC8728848
The list shows a part of the results.

How the values were obtained:
Test in all cases: glycan array binding signal (z-score within array); higher = stronger binding
Conditions in all cases: glycan notation: IUPAC condensed, linker removed
[1] = target: Gal(b1-4)GlcNAc(b1-2)Man(a1-6)[Man(a1-3)]Man(b1-4)GlcNAc(b1-4)GlcNAc
Method in brief: (§1)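 Negative Z-scores can be read as non-binding. The Z-score is calculated within each array and then averaged across arrays of one protein sequence at different concentrations or buffers and across linkers. Arrays, 3228 in all, were curated from the Consortium for Functional Glycomics database and kept only where the protein sequence was available.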

[2] = target: Gal(b1-4)GlcNAc(b1-2)[Gal(b1-4)GlcNAc(b1-4)]Man(a1-3)[Gal(b1-4)GlcNAc(b1-2)Man(a1-6)]Man(b1-4)GlcNAc(b1-4)GlcNAc
Method in brief: as §1

[3] = target: Gal(b1-4)GlcNAc(b1-2)[Gal(b1-4)GlcNAc(b1-4)]Man(a1-3)[Gal(b1-4)GlcNAc(b1-2)[Gal(b1-4)GlcNAc(b1-6)]Man(a1-6)]Man(b1-4)GlcNAc(b1-4)GlcNAc
Method in brief: as §1

[4] = target: Gal(b1-4)GlcNAc(b1-2)[Gal(b1-4)GlcNAc(b1-4)]Man(a1-3)[GlcNAc(b1-4)][Gal(b1-4)GlcNAc(b1-2)Man(a1-6)]Man(b1-4)GlcNAc(b1-4)GlcNAc
Method in brief: as §1

[5] = target: Gal(b1-4)GlcNAc(b1-2)[Gal(b1-4)GlcNAc(b1-4)]Man(a1-3)[GlcNAc(b1-4)][Gal(b1-4)GlcNAc(b1-2)[Gal(b1-4)GlcNAc(b1-6)]Man(a1-6)]Man(b1-4)GlcNAc(b1-4)GlcNAc
Method in brief: as §1

[6] = target: Gal(b1-4)GlcNAc(b1-2)[Gal(b1-4)GlcNAc(b1-6)]Man(a1-6)[Gal(b1-4)GlcNAc(b1-2)Man(a1-3)]Man(b1-4)GlcNAc(b1-4)GlcNAc
Method in brief: as §1

[7] = target: Gal(b1-4)GlcNAc(b1-2)[Gal(b1-4)GlcNAc(b1-6)]Man(a1-6)[Gal(b1-4)GlcNAc(b1-2)Man(a1-3)]Man(b1-4)GlcNAc(b1-4)[Fuc(a1-6)]GlcNAc
Method in brief: as §1

[8] = target: Gal(b1-4)GlcNAc(b1-2)[Gal(b1-4)GlcNAc(b1-6)]Man(a1-6)[GlcNAc(b1-4)][Gal(b1-4)GlcNAc(b1-2)Man(a1-3)]Man(b1-4)GlcNAc(b1-4)GlcNAc
Method in brief: as §1

[9] = target: Gal(b1-4)GlcNAc(b1-2)[Gal(b1-4)GlcNAc(b1-6)]Man(a1-6)[GlcNAc(b1-4)][Gal(b1-4)GlcNAc(b1-2)[Gal(b1-4)GlcNAc(b1-4)]Man(a1-3)]Man(b1-4)GlcNAc(b1-4)[Fuc(a1-6)]GlcNAc
Method in brief: as §1

[10] = target: Gal(b1-4)GlcNAc(b1-3)Gal(b1-3)GalNAc
Method in brief: as §1

[11] = target: Gal(b1-4)GlcNAc(b1-3)Gal(b1-3)GlcNAc
Method in brief: as §1

[12] = target: Gal(b1-4)GlcNAc(b1-3)Gal(b1-4)Glc
Method in brief: as §1

[13] = target: Gal(b1-4)GlcNAc(b1-3)Gal(b1-4)GlcNAc
Method in brief: as §1

[14] = target: Gal(b1-4)GlcNAc(b1-3)Gal(b1-4)GlcNAc(b1-2)Man(a1-3)[Gal(b1-4)GlcNAc(b1-3)Gal(b1-4)GlcNAc(b1-2)Man(a1-6)]Man(b1-4)GlcNAc(b1-4)GlcNAc
Method in brief: as §1

[15] = target: Gal(b1-4)GlcNAc(b1-3)Gal(b1-4)GlcNAc(b1-2)Man(a1-3)[Gal(b1-4)GlcNAc(b1-3)Gal(b1-4)GlcNAc(b1-2)Man(a1-6)]Man(b1-4)GlcNAc(b1-4)[Fuc(a1-6)]GlcNAc
Method in brief: as §1

[16] = target: Gal(b1-4)GlcNAc(b1-3)Gal(b1-4)GlcNAc(b1-2)[Gal(b1-4)GlcNAc(b1-3)Gal(b1-4)GlcNAc(b1-6)]Man(a1-6)[Gal(b1-4)GlcNAc(b1-3)Gal(b1-4)GlcNAc(b1-2)Man(a1-3)]Man(b1-4)GlcNAc(b1-4)GlcNAc
Method in brief: as §1

[17] = target: Gal(b1-4)GlcNAc(b1-3)Gal(b1-4)GlcNAc(b1-2)[Gal(b1-4)GlcNAc(b1-3)Gal(b1-4)GlcNAc(b1-6)]Man(a1-6)[Gal(b1-4)GlcNAc(b1-3)Gal(b1-4)GlcNAc(b1-2)Man(a1-3)]Man(b1-4)GlcNAc(b1-4)[Fuc(a1-6)]GlcNAc
Method in brief: as §1

[18] = target: Gal(b1-4)GlcNAc(b1-3)Gal(b1-4)GlcNAc(b1-3)Gal(b1-4)GlcNAc
Method in brief: as §1

[19] = target: Gal(b1-4)GlcNAc(b1-3)Gal(b1-4)GlcNAc(b1-3)Gal(b1-4)GlcNAc(b1-2)Man(a1-3)[Gal(b1-4)GlcNAc(b1-3)Gal(b1-4)GlcNAc(b1-3)Gal(b1-4)GlcNAc(b1-2)Man(a1-6)]Man(b1-4)GlcNAc(b1-4)GlcNAc
Method in brief: as §1

[20] = target: Gal(b1-4)GlcNAc(b1-3)Gal(b1-4)GlcNAc(b1-3)Gal(b1-4)GlcNAc(b1-2)Man(a1-3)[Gal(b1-4)GlcNAc(b1-3)Gal(b1-4)GlcNAc(b1-3)Gal(b1-4)GlcNAc(b1-2)Man(a1-6)]Man(b1-4)GlcNAc(b1-4)[Fuc(a1-6)]GlcNAc
Method in brief: as §1

[21] = target: Gal(b1-4)GlcNAc(b1-3)Gal(b1-4)GlcNAc(b1-3)Gal(b1-4)GlcNAc(b1-2)[Gal(b1-4)GlcNAc(b1-3)Gal(b1-4)GlcNAc(b1-3)Gal(b1-4)GlcNAc(b1-6)]Man(a1-6)[Gal(b1-4)GlcNAc(b1-3)Gal(b1-4)GlcNAc(b1-3)Gal(b1-4)GlcNAc(b1-2)Man(a1-3)]Man(b1-4)GlcNAc(b1-4)[Fuc(a1-6)]GlcNAc
Method in brief: as §1

[22] = target: Gal(b1-4)GlcNAc(b1-3)Gal(b1-4)GlcNAc(b1-3)Gal(b1-4)GlcNAc(b1-3)Gal(b1-4)GlcNAc(b1-2)Man(a1-3)[Gal(b1-4)GlcNAc(b1-3)Gal(b1-4)GlcNAc(b1-3)Gal(b1-4)GlcNAc(b1-3)Gal(b1-4)GlcNAc(b1-2)Man(a1-6)]Man(b1-4)GlcNAc(b1-4)GlcNAc
Method in brief: as §1

B1: FimA-N1 (Actinomyces oris) (protein)
chain: MHHHHHHSSGVDLGTENLYFQSNATETPNYGNIKTDATGSLVIHKHLTGGGKDIGTPTGTAQNADDKGPAVEGVVFTAYPITDINLKDPAGWDTISNLSRTGVPDSACANPAAPTLGAHQFGTPKVSPATTKEGLATITEMPVQAYLVCETTTPGDIVQKAKPFVVTIPHPNTAAGADGQWIYDVNVYPKNEAIDVDKTIQAQK
glycan array binding signal (z-score) [1]: -0.16
glycan array binding signal (z-score) [2]: -0.433
glycan array binding signal (z-score) [3]: -0.483
glycan array binding signal (z-score) [4]: 0.043
glycan array binding signal (z-score) [5]: 1.32
glycan array binding signal (z-score) [6]: -0.435
glycan array binding signal (z-score) [7]: -0.118
glycan array binding signal (z-score) [8]: -0.293
glycan array binding signal (z-score) [9]: -0.29
glycan array binding signal (z-score) [10]: -0.435
glycan array binding signal (z-score) [11]: -0.576
glycan array binding signal (z-score) [12]: -0.367
glycan array binding signal (z-score) [13]: -0.434
glycan array binding signal (z-score) [14]: 0.218
glycan array binding signal (z-score) [15]: -0.003
glycan array binding signal (z-score) [16]: 0.84
glycan array binding signal (z-score) [17]: 0.409
glycan array binding signal (z-score) [18]: -0.379
glycan array binding signal (z-score) [19]: 0.083
glycan array binding signal (z-score) [20]: 0.569
glycan array binding signal (z-score) [21]: -0.002
glycan array binding signal (z-score) [22]: 0.478
